Measurements: PubChem BioAssay AID588342 (National Center for Advancing Translational Sciences (NCATS), 2011)
About 25,000 (6.9%) of roughly 360,000 compounds were called active. This list was built around the results that the source calls inconclusive (neither active nor inactive); the mix of calls is not that of the screen. Calls follow the shape of the dose curve; as a rule, active = well fitted inhibition curve with a large enough effect; inconclusive = small, poorly fitted or top-dose-only effect; inactive = flat fitted curve, though single readings scatter. A potency beside an inconclusive call is a rough fit, not a confirmed value.

Biological target: Luciferin 4-monooxygenase (Photinus pyralis) (UniProt P08659)
Assay: qHTS profiling assay for firefly luciferase inhibitor/activator using purifed enzyme and Km concentrations of substrates (counterscreen for miR-21 project); also: nearly all actives have a fitted effect of over 55% in size
Conditions: purified FLuc, luminescence inhibition; series mostly up to 57.5 µM
Procedure, shortened: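 Purified P. pyralis luciferase, 10 nM final, with Km-level 10 uM D-luciferin and 10 uM ATP in 50 mM Tris acetate pH 7.5, 10 mM Mg acetate, 0.01% Tween-20, 0.05% BSA; 6-point qHTS titration about 60 µM downward; luminescence read.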
Potency is read from the fitted curve at half-maximal effect; tags tell the direction and shape of the fitted curve.

Chain of UniProt P08659 (P08659 whole entry, looked up): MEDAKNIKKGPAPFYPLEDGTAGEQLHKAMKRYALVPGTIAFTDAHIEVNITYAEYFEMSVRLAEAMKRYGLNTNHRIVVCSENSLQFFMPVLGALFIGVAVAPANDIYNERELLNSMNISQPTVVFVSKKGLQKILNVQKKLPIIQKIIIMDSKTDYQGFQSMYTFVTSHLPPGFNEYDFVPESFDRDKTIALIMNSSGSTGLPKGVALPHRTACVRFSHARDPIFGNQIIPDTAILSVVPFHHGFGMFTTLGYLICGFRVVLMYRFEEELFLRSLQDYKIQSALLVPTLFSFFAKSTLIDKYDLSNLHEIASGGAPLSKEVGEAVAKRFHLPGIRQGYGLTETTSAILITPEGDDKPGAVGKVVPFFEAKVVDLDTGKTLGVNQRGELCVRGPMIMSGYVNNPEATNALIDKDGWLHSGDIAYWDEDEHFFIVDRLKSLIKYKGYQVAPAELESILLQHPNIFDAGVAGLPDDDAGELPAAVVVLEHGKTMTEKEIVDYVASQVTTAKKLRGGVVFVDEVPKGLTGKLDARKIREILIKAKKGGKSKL

**Q.** For `COc1ccc2nc(N3CCCCC3)c(C#N)cc2c1`, which Potency is on record?
**A.** The Potency was active: 3.79 µM.

**Q.** Which Potency does the source give for `Cc1ccc(OCC(=O)NCC2(N(C)C)CCCCC2)cc1C` here?
**A.** The Potency was “inactive”.

**Q.** Which Potency does the source give for `Nc1nn(-c2ccccc2Cl)cc1-c1nn[nH]n1` here?
**A.** The Potency was inconclusive: 37.9 µM [inhibitor, partial curve, poor fit].

**Q.** Which Potency does the source give for `CCOC(=O)C1CCN(S(=O)(=O)c2ccc3oc(=O)ccc3c2)CC1` here?
**A.** Its Potency is “inactive”.

**Q.** For `CC(=O)Nc1ccc(O)c(-c2nc3ccccc3s2)c1`, which Potency is on record?
**A.** Its Potency is inconclusive: 2.69 µM [inhibitor, partial curve, poor fit].

**Q.** With `CCCn1c(CNc2ccc(Br)cc2)nc2ccccc21` as the compound, how does the Potency read?
**A.** The Potency was active: 16.9 µM.

**Q.** How did the Potency turn out when `CCN(CC)c1ccc(C(=O)N/N=C/c2ccc(OC)cc2OC)cc1` was run?
**A.** Its Potency is inconclusive: 12 µM [inhibitor, partial curve].

**Q.** With `C#CCOc1ccc(-c2nnc(Nc3ccc(NC(C)=O)cc3)c3ccccc23)cc1` as the compound, how does the Potency read?
**A.** Its Potency is “inactive”.

**Q.** With `CC1CN(C(=O)c2ccc(Br)c(S(=O)(=O)N3CCOCC3)c2)CC(C)O1` (centres undefined) as the compound, how does the Potency read?
**A.** The Potency was “inactive”.

**Q.** Which Potency does the source give for `Cc1cc(=O)n2cc(-c3ccccc3)nc2[nH]1` here?
**A.** The Potency was active: 12 µM.

**Q.** `O=C(CCc1nnc(CCCc2ccccc2)o1)NCC(F)(F)F` was tested. Which Potency did it give?
**A.** The Potency was inconclusive: 26.9 µM [inhibitor, single point].

**Q.** `COc1ccc(CCNC(=O)C(=O)NCC2CCCN2S(=O)(=O)c2ccccc2)cc1` (centres undefined) was tested. Which Potency did it give?
**A.** The Potency was inconclusive: 7.57 µM [inhibitor, single point].

**Q.** With `Cc1[nH]n(-c2ccccc2)c(=O)c1N=Nc1ccc2c(c1)OCCO2` as the compound, how does the Potency read?
**A.** The Potency was active: 6.01 µM.

**Q.** With `CC1CCc2c(sc(NC(=O)c3ccc(N4C(=O)CCC4=O)cc3)c2C(N)=O)C1` (centres undefined) as the compound, how does the Potency read?
**A.** The Potency was active: 9.53 µM.

**Q.** How did the Potency turn out when `O=C(Nc1ccc(Cc2ccc(NC(=O)C3CC3)c(O)c2)cc1O)C1CC1` was run?
**A.** Its Potency is inconclusive: 37.9 µM [inhibitor, partial curve, poor fit].

**Q.** `Cc1ccc(Cl)cc1N1CCN(C(=O)c2c(C)oc3ncnc(N4CCCCC4)c23)CC1` was tested. Which Potency did it give?
**A.** The Potency was “inactive”.

**Q.** For `CCCCOc1cccc(C(=O)Nc2cc(NC(=O)c3ccco3)ccc2OC)c1`, which Potency is on record?
**A.** Its Potency is inconclusive: 30.1 µM [inhibitor, single point].

**Q.** With `COc1ccc(N2CC(C(=O)N/N=C/c3cc([N+](=O)[O-])ccc3O)CC2=O)cc1` (centres undefined) as the compound, how does the Potency read?
**A.** Its Potency is inconclusive: 26.9 µM [inhibitor, single point].

**Q.** How did the Potency turn out when `CCc1ccc(CN2CCc3nc(N4CCN(c5ccccc5F)CC4)ncc3C2)cc1` was run?
**A.** Its Potency is “inactive”.

**Q.** Which Potency does the source give for `COc1ccc2nc(NC(=O)c3ccccc3[N+](=O)[O-])sc2c1` here?
**A.** Its Potency is inconclusive: 13.5 µM [inhibitor, partial curve, poor fit].

**Q.** For `Cc1ccc(NC(=O)COC(=O)c2c(C)nn(-c3ccccc3)c2C)cc1`, which Potency is on record?
**A.** The Potency was “inactive”.

**Q.** With `Nn1c(SCC(=O)Nc2nnc(-c3ccccc3)o2)nnc1C1CC1` as the compound, how does the Potency read?
**A.** Its Potency is active: 8.49 µM.

**Q.** How did the Potency turn out when `Cc1ccc(Cc2cc(-c3ccc(C)cc3)n[nH]c2=O)cc1` was run?
**A.** The Potency was inconclusive: 37.9 µM [inhibitor, single point].

**Q.** How did the Potency turn out when `O=C(NC(=S)Nc1cccnc1)c1cccc(Br)c1` was run?
**A.** The Potency was inconclusive: 37.9 µM [inhibitor, single point].

**Q.** For `Cc1cc(NC(=O)Nc2cccc(Cl)c2)n(-c2ccccc2)n1`, which Potency is on record?
**A.** Its Potency is “inactive”.

**Q.** How did the Potency turn out when `OC(COc1ccc2ccccc2c1Cl)CN1CCOCC1` (centres undefined) was run?
**A.** Its Potency is active: 16.9 µM.

**Q.** How did the Potency turn out when `CC(=O)c1ccc(NC(=O)c2noc3c2CSc2ccccc2-3)cc1` was run?
**A.** Its Potency is “inactive”.

**Q.** How did the Potency turn out when `CCSC1=NC(=O)/C(=C2/C=Cc3ccccc3N2CC)S1` was run?
**A.** The Potency was inconclusive: 30.1 µM [inhibitor, partial curve, poor fit].

**Q.** `CCCCc1ccc(NC(=O)CC(C)(C)C)cc1` was tested. Which Potency did it give?
**A.** Its Potency is active: 15.1 µM.

**Q.** Which Potency does the source give for `CC(=O)NS(=O)(=O)c1ccc(NC(=O)c2cccc(OCc3c(C)noc3C)c2)cc1` here?
**A.** The Potency was inconclusive: 16.9 µM [inhibitor, partial curve, poor fit].

**Q.** For `Oc1ccc(Nc2nc(NCC3CCCO3)c3ccccc3n2)cc1` (centres undefined), which Potency is on record?
**A.** Its Potency is inconclusive: 21.3 µM [inhibitor, partial curve, poor fit].

**Q.** `COc1ccc(/C=C/C(=O)NC(=S)NNC(=O)c2c(-c3ccccc3)noc2C)cc1` was tested. Which Potency did it give?
**A.** Its Potency is “inactive”.

**Q.** For `O=C(COC(=O)CCSc1ccccc1)Nc1cc(F)ccc1F`, which Potency is on record?
**A.** The Potency was “inactive”.

**Q.** `COc1ccc2ccccc2c1CNCc1ccccn1` was tested. Which Potency did it give?
**A.** The Potency was inconclusive: 37.9 µM [inhibitor, single point].

**Q.** With `CC(C)CCNC(=O)CCCOc1ccccc1` as the compound, how does the Potency read?
**A.** The Potency was inconclusive: 21.3 µM [inhibitor, partial curve, poor fit].

**Q.** With `Cc1ccc(S(=O)(=O)Nc2cc3c(cc2NCc2ccccc2)n(C)c(=O)n3C)cc1` as the compound, how does the Potency read?
**A.** The Potency was inconclusive: 23.9 µM [inhibitor, partial curve, poor fit].

**Q.** How did the Potency turn out when `N/C(=N\OC(=O)c1ccc2c(c1)OCO2)c1cccc([N+](=O)[O-])c1` was run?
**A.** Its Potency is active: 0.426 µM.

**Q.** For `O=C(Cn1c(=O)nc(-c2ccccc2)c2cc(Cl)ccc21)N1CCN(c2ccccc2F)CC1`, which Potency is on record?
**A.** Its Potency is “inactive”.

**Q.** With `Cc1cc(C)nc(N(C#N)Cc2ccccc2C)n1` as the compound, how does the Potency read?
**A.** The Potency was inconclusive: 0.0107 µM [inhibitor, partial curve, poor fit].

**Q.** Which Potency does the source give for `O=C(Nc1nc(-c2cccs2)cs1)C1=COCCO1` here?
**A.** Its Potency is active: 12 µM.

**Q.** For `COc1ccc(NC(=O)c2ccc(NCCCN3CCOCC3)c([N+](=O)[O-])c2)cc1`, which Potency is on record?
**A.** Its Potency is inconclusive: 23.9 µM [inhibitor, partial curve, poor fit].

**Q.** For `Cn1c2ccccc2c(=O)c2ccc(F)cc21`, which Potency is on record?
**A.** Its Potency is “inactive”.

**Q.** `Cc1ccc(/C=C\c2nccc3c2[nH]c2ccccc23)cc1` was tested. Which Potency did it give?
**A.** The Potency was active: 1.69 µM.

**Q.** With `CCOC(=O)COn1c(-c2cccc(Cl)c2)nc2ccc([N+](=O)[O-])cc21` as the compound, how does the Potency read?
**A.** Its Potency is inconclusive: 23.9 µM [inhibitor, partial curve].

**Q.** `Cc1c(C)n(Cc2ccc(F)cc2)c2ccc(C(=O)NCc3ccco3)cc12` was tested. Which Potency did it give?
**A.** Its Potency is “inactive”.

**Q.** Which Potency does the source give for `O=C(COc1ccc2ccc(=O)oc2c1)Nc1ccc2c(c1)OCCO2` here?
**A.** Its Potency is active: 9.53 µM.

**Q.** `O=C1S/C(=C\c2ccc(N3CCOCC3)o2)C(=O)N1Cc1ccc(F)cc1` was tested. Which Potency did it give?
**A.** The Potency was inconclusive: 12 µM [inhibitor, partial curve, poor fit].

**Q.** Which Potency does the source give for `O=C(NCCN1CCN(c2cccc(Cl)c2)CC1)Nc1ccccc1C(F)(F)F` here?
**A.** Its Potency is “inactive”.

**Q.** With `O=C(CSc1ncc(-c2ccccc2)[nH]1)Nc1ccc(Cl)cc1` as the compound, how does the Potency read?
**A.** Its Potency is inconclusive: 26.9 µM [inhibitor, single point].
